Assay results published in article PMC4336329 (PLoS ONE, 2015).
Among all 310,000 compounds or so, about 2,200 (0.71%) showed an effect of 50% or more. The effect is printed as a negative number. Some of the results follow.

These molecules were tested against human ether-à-go-go-related gene (hERG) potassium channel (human, UniProt Q12809) (assay: primary screen, population patch clamp on CHO cells stably expressing hERG).
Chain of human ether-à-go-go-related gene (hERG) potassium channel (Q12809 whole entry, looked up): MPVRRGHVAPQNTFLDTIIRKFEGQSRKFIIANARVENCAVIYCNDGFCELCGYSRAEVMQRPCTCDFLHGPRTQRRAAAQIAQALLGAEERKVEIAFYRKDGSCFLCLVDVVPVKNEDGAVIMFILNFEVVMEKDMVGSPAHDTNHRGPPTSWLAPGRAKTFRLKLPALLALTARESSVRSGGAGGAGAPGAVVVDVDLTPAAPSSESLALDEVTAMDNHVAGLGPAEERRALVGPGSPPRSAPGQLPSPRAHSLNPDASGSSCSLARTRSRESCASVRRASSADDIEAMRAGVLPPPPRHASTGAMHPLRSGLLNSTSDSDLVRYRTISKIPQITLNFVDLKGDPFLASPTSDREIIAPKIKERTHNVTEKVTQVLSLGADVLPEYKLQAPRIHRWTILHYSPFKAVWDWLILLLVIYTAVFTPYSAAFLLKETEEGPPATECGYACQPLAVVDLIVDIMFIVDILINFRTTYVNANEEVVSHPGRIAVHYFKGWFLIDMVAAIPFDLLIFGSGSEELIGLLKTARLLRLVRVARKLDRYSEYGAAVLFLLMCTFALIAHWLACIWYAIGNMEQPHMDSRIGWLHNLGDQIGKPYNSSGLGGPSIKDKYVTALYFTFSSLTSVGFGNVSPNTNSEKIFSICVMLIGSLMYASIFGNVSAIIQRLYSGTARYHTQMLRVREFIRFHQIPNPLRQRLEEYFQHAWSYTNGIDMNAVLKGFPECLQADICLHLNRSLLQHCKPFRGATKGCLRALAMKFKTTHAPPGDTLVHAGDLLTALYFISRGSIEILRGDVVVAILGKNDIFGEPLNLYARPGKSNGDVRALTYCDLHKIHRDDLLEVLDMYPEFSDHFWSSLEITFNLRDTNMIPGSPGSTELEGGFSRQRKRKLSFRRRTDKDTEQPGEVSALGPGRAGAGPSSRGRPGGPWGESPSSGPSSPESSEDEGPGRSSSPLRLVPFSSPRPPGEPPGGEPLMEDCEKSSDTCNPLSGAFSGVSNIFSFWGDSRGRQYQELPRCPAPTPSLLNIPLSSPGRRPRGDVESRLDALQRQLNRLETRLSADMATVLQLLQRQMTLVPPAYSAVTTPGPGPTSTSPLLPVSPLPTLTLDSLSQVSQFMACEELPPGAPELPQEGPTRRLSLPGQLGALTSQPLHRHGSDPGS

| Structure (SMILES) | hERG current change (%, negative = inhibition) at 1uM |
| --- | --- |
| COc1ccc(C(=O)N/N=c2\oc3ccccc3cc2C(=O)NCc2ccccc2)cc1 | 6.2% |
| Cc1cccc(-c2csc(NC(=O)c3cnccn3)c2C(=O)OC(C)C)c1 | 5.34% |
| CCCOc1ccc(-c2nc(=S)[nH][nH]2)cc1 | 11.3% |
| CCOc1ccc(C(=O)NC(=S)Nc2ccccc2N2CCCCC2)cc1[N+](=O)[O-] | 8.22% |
| COc1ccc(CC(=O)OCC(=O)Nc2ncc(Cl)cc2Cl)cc1 | 7.84% |
| Cc1ccc(CNC(=O)c2cc3c(=O)n4ccccc4nc3n(Cc3ccco3)c2=N)cc1 | -38.1% |
| Cc1cc(OCC(=O)Nc2ccc(S(=O)(=O)N3CCN(C)CC3)cc2)ccc1Cl | 8.45% |
| COc1ccc(CN2CCCCC2C)cc1OC (centres unmarked) | -2.1% |
| NC(=O)C1CCN(C(=O)CN2CCN(c3cccc(C(F)(F)F)c3)CC2)CC1 | 2.68% |
| O=C(CSc1nc(=O)n2ccccc2n1)NCc1ccc(F)cc1 | 16.2% |
| Cn1c(NC(=O)c2ccc(C(C)(C)C)cc2)cc(=O)n(C)c1=O | 15.8% |
| COCCCNCCC(CCC(C)C)c1ccc2c(c1)OCO2.Cl (centres unmarked) | -85.8% |
| CCc1nnc(NC(=O)CSc2nnc(-c3ccc(S(=O)(=O)N4CCCC4)cc3)n2CC)s1 | 6.83% |
| COc1ccc(-c2ncc3ccccn23)cc1 | 5.62% |
| Cc1c(C2(c3c(C)n(C)n(-c4ccccc4)c3=O)C(=O)Nc3ccc(F)cc32)c(=O)n(-c2ccccc2)n1C | 14.8% |
| COc1ccccc1OCCNC(=O)Cc1ccc(Cl)c(Cl)c1 | -8.28% |
| COC(=O)c1c(NC(=O)COc2ccc(Cl)cc2Cl)sc2c1CC(C)(C)NC2(C)C | 12.5% |
| Cc1cccc(C)c1NC(=O)CSc1nnc(C2CCCCC2)o1 | 6.3% |
| c1coc(-c2nnc3n2C2(CCCC2)Cc2ccccc2-3)c1 | 15.1% |

| Structure (SMILES) | hERG current change (%, negative = inhibition) at 1uM |
| --- | --- |
| COc1ccc(CCNC(=O)CNS(=O)(=O)c2ccc(F)c(Cl)c2)cc1OC | 10.6% |
| Cc1ccccc1Nc1nc(N)nc(COC(=O)CC2CC3CCC2C3)n1 (centres unmarked) | 10.9% |
| CC(C)CNC(=O)c1nn(Cc2ccccc2)c(=O)c2ccccc12 | 3.73% |
| CCCCOC(=O)c1ccc(NC(=O)c2ccccc2OC)cc1 | 7.3% |
| COc1ccc(C(=O)N2CCC(C(=O)N3CCN(c4ccccc4)CC3)CC2)cc1 | -24.6% |
| O=C(NNC(=O)C1CCN(Cc2ccc(Cl)c(Cl)c2)CC1)c1cccs1 | 16.6% |
| Cc1ccc(C(=O)NC(=S)NNC(=O)COc2ccccc2C)cc1 | 12.9% |
| CCCCc1nc2ccccc2c(NC(=O)CN2CCCC2)c1CCC.O=C(O)C(=O)O | 6.89% |
| O=C1c2ccccc2C(Nc2ccc(S(=O)(=O)N3CCOCC3)cc2)N1c1ccccn1 (centres unmarked) | 6.53% |
| COc1ccc(CN2C(=O)NC(=O)/C(=C/c3ccc([N+](=O)[O-])s3)C2=O)cc1 | 18.9% |
| CCn1nc(C)c(Br)c1-c1nc(-c2ccc(C)cc2)no1 | 11.9% |
| c1ccc(Cn2nnnc2C(c2cccnc2)N2CCN(C3CCCCC3)CC2)cc1 (centres unmarked) | 0.0294% |
| Cc1cc(OC(C)C(=O)NCCCN2CCCC2=O)c2c(C)c(C)c(=O)oc2c1 (centres unmarked) | 2.69% |
| O=[N+]([O-])c1ccc(Cl)cc1Sc1ccccn1 | 14.3% |
| Cc1cc(C)c(OCC(=O)Nc2nc3ccccc3[nH]2)c(C)c1 | 11.2% |
| O=C(CSc1ccccc1)Nc1ccc2c(c1)C(=O)NC2=O | 4.61% |
| O=C(CN(c1cccc([N+](=O)[O-])c1)S(=O)(=O)c1ccccc1)NCc1cccnc1 | -3.13% |
| O=C(CCN1C(=O)c2ccccc2C1=O)Nc1ccc(S(=O)(=O)NC2=NCCCCC2)cc1 | 7.47% |
| Cc1oc2cc3oc(=O)c(CCC(=O)NCCCn4ccnc4)c(C)c3cc2c1C | 7.61% |

| Structure (SMILES) | hERG current change (%, negative = inhibition) at 1uM |
| --- | --- |
| O=C(NCC(=O)N1CCCCC1)c1ccc2ccccc2c1 | 21.1% |
| Cc1ccc(SCCCn2cncn2)cc1 | 1.21% |
| Cc1ccc(-c2[nH]ncc2/C=C(\C#N)C(=O)NC2CCCCC2)cc1 | 5.62% |
| COc1ccc(S(=O)(=O)N2CCOC2CNC(=O)C(=O)NCc2ccccn2)cc1C (centres unmarked) | 13.9% |
| COc1ccc(CNC(=O)C/C(C)=N/NC(=O)c2ccc(OC)cc2OC)cc1 | -5.79% |
| O=C(CSc1ccccc1Cl)N1CCOCC1 | 9.02% |
| N#CC1(NC(=O)COC(=O)c2ccc(-c3ccc(O)cc3)cc2)CCCCC1 | 5.27% |
| O=C(Cc1ccccc1)NCC(=O)Nc1cccc(Cl)c1 | 15.2% |
| O=C(NCCc1ccccc1)C1CCCN1C(=O)Nc1ccc(Cl)cc1 (centres unmarked) | 0.785% |
| O=CN1Cc2ccccc2-c2ccccc2C1 | 15.4% |
| COc1cc(C=O)ccc1Oc1nc(Nc2ccc(F)cc2F)nc(N2CCOCC2)n1 | 7.34% |
| Cc1ccc(C(=O)N/N=C\c2ccc(OC(=O)c3cccs3)cc2)cn1 | 2.76% |
| O=C(OCC(=O)N1CCN(S(=O)(=O)c2ccc(Cl)cc2)CC1)c1cccc(OC(F)F)c1 | -15.7% |
| Cn1nnc(NC(=O)c2ccccc2)n1 | 4.2% |
| CC(C)(C)C(=O)Nc1ccc(-c2cn3ccsc3n2)cc1 | 11.7% |
| Cc1nc2c3ccccc3n(CCN3CCCCC3)c2s1.Cl | -4.03% |
| O=C(N/N=C/c1cccc2ccccc12)c1cc(C2CC2)[nH]n1 | 9.35% |
| CC(C)CC(CC(C)C)=NNC(=O)c1ccc2c(c1)OCO2 | 2.58% |
